The whole screen tested about 310,000 compounds, of which about 14,000 (4.5%) showed an effect of 50% or more. The effect is printed as a negative number. Some of the results follow.
These compounds were tested against human ether-à-go-go-related gene (hERG) potassium channel (human, UniProt Q12809) (assay: primary screen, population patch clamp on CHO cells stably expressing hERG).
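Also: peak tail current of the secondary pulse compared with the same well before compound.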

Chain of human ether-à-go-go-related gene (hERG) potassium channel (Q12809 whole entry, looked up): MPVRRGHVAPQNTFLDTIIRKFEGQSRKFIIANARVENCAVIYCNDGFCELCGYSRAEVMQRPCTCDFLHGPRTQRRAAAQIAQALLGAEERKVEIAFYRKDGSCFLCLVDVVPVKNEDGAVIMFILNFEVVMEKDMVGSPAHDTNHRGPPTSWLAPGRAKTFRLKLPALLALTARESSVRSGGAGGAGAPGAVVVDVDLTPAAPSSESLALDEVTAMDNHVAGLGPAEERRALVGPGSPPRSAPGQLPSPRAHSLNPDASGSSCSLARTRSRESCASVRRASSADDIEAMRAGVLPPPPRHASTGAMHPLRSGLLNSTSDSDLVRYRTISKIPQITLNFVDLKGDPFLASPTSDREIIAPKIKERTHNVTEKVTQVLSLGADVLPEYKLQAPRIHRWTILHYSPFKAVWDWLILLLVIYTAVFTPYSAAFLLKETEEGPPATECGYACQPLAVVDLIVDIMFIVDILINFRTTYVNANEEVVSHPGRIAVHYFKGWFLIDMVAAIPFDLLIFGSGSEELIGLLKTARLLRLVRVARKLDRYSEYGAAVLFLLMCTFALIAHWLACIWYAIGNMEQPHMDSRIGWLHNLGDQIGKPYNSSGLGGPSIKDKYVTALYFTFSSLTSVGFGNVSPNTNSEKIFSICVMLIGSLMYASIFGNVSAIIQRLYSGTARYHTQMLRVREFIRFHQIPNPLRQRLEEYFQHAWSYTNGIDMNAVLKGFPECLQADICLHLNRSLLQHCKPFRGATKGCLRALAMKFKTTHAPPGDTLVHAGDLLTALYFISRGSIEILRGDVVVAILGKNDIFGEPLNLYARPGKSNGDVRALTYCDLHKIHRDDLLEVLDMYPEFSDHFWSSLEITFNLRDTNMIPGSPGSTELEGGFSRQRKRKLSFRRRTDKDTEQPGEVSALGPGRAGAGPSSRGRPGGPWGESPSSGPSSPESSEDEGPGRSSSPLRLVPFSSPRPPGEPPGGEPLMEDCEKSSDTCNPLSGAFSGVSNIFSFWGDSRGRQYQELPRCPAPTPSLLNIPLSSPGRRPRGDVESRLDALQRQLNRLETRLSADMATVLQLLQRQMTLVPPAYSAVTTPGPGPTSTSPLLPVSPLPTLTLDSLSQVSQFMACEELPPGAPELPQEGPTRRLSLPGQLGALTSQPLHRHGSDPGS

In order of falling “hERG current change (%, negative = inhibition) at 10uM” value:
1. CCCCNc1nc(C)c(C(C)=O)cc1C#N  24.1%
2. Cc1cc(C)cc(OC(=O)COc2ccccc2C)c1  23.8%
3. COCCNC(=O)c1onc(CSc2cc(C)cc(C)c2)c1C(=O)O  18.9%
4. Fc1cccc(CN2CCN(c3ccc(Cl)cc3)CC2)c1  18%
5. COc1ccc(/C=C2/C(=O)NC(=O)N(Cc3ccco3)C2=O)cc1  17.6%
6. CN(Cc1ccccc1)C(=O)C1CCN(S(C)(=O)=O)CC1  16.1%
7. CCN(CC)C(=O)c1sc(NC(=O)c2ccoc2C)c(C(=O)OC)c1C  16%
8. CC(=O)c1nn(-c2cccc(Br)c2)cc1C(=O)c1ccc(Br)cc1  12.7%
9. COc1ccc(-n2c(/C=C/c3ccc(O)c(O)c3)nc3ccccc3c2=O)cc1  10.6%
10. CCn1ccnc1C(O)c1cccc(OC)c1 (stereo not shown)  9.96%
11. Cc1ccc(Nc2ccc(N3CCN(c4ccc([N+](=O)[O-])cc4)CC3)nn2)cc1  9.07%
12. COc1cc(OC)c(C(=O)/C=C/c2ccccc2)c(O)c1O  8.43%
13. Cc1nc(C)c(-c2nnc(-c3ccccc3Cl)o2)cc1C(=O)NN  8.32%
14. CCOC(=O)CNC(=O)CSc1cc(C)nc2ccc(OC)cc12  8.11%
15. Cc1cc(C)c(C#N)c(SCc2c(F)cccc2[N+](=O)[O-])n1  6.69%
16. CCCCN1Cc2c(nc3cc(-c4ccccc4)[nH]n3c2=O)C1=O  6.51%
17. CC(C)CC(NC(N)=O)C(=O)NCc1ccc(Cl)cc1 (stereo not shown)  5.23%
18. COCc1cc(C)nc(SCc2ccc([N+](=O)[O-])cc2)c1C#N  5.08%
19. O=C(CNC(=O)c1ccc2c(c1)S(=O)(=O)N=C1CCCCCN12)Nc1ccc(F)c(F)c1  4.03%
20. CCC(NC(=O)c1cc(COc2cc(C)c(Cl)c(C)c2)on1)c1ccncc1 (stereo not shown)  2.85%
21. Cc1nn(-c2ccccc2)c2sc(C(=O)N(Cc3ccco3)C(C)C(=O)NC(C)(C)C)cc12 (stereo not shown)  2.23%
22. CNC(=S)N1N=C(c2ccc(OC)cc2)CC1c1ccccc1Cl (stereo not shown)  1.24%
23. C=C1CCC[C@]2(C)C[C@H]3OC(=O)C(CNC(C)CC)[C@H]3CC12 (stereo partly shown)  0.523%
24. COc1ccc(C(=O)NC(C(=O)N2CCc3ccccc32)C(C)C)cc1 (stereo not shown)  -0.0963%
25. CCOc1ccc(NC(=O)C(CC)NC(=O)c2ccccc2CO)cc1 (stereo not shown)  -0.62%
26. CC(=O)N1CCCC1(C(=O)O)c1ccccc1 (stereo not shown)  -1.16%
27. O=C(CN1C(=O)NC2(CCCC2)C1=O)Nc1cc(Cl)ccc1N1CCCC1  -2.48%
28. O=S(=O)(NCC1CCCO1)c1ccc(S(=O)(=O)N(Cc2ccc(F)cc2)Cc2ccco2)cc1 (stereo not shown)  -2.49%
29. Cc1ccc2cc(CCNC(=O)c3ccco3)c(=O)[nH]c2c1C  -2.6%
30. O=C(CSCc1ccccc1Cl)Nc1c[nH]c(=O)[nH]c1=O  -2.89%
31. O=C(Nc1ccc([N+](=O)[O-])cc1)Nc1ccc2[nH]c(=O)[nH]c2c1  -3.77%
32. O=S(=O)(NC1CCCCC1N1CCN(c2cccc(Cl)c2)CC1)c1ccccc1 (stereo not shown)  -4.48%
33. CCOC(=O)N1CCN(C(=O)C2CCN(S(=O)(=O)N(CC)CC)CC2)CC1  -5.23%
34. CC(Oc1ccc(Cl)cc1)C(=O)OCC(=O)Nc1ncc(Cl)cc1Cl (stereo not shown)  -6%
35. CC(OC(=O)/C(C#N)=C/c1ccc(N(C)C)cc1)C(=O)N(C)c1ccccc1 (stereo not shown)  -8.23%
36. O=C1CCCC2=C1C(O)(C(F)(F)F)C(=O)N2Cc1ccccc1 (stereo not shown)  -10.1%
37. Cc1nc2ccccc2c(=O)n1NC(=O)Cc1ccc(Br)cc1  -10.2%
38. Cc1cc(NC(=O)COC(=O)COc2ccc3c4c(c(=O)oc3c2)CCC4)no1  -11%
39. CS(=O)(=O)N1N=C(c2ccco2)CC1c1ccc(Cl)cc1Cl (stereo not shown)  -11.2%
40. Cc1nnc(SCC(=O)Nc2cccc([N+](=O)[O-])c2)n1CC1CCCO1 (stereo not shown)  -13%
41. Cc1cccc(C(=O)NCc2nnc(SCc3ccc(F)cc3)n2C)c1  -15.1%
42. COc1ccc(C(C(=O)Nc2ccc3c(c2)OCO3)N(C)C(=O)Cc2c[nH]c3ccccc23)cc1 (stereo not shown)  -19%
43. Cc1ccc(Oc2ccccc2NC(=O)CSCC(=O)Nc2cc(C)on2)cc1  -19.3%
44. COc1cc(/C=C/C(=O)N(Cc2ccccc2)c2ccccn2)cc(OC)c1OC  -23.2%
45. COc1cccc(-c2cc(C(=O)N3CCc4ccccc4C3)no2)c1  -27%
46. O=C(CN(c1ccc(F)cc1)S(=O)(=O)c1ccc2c(c1)OCCO2)NCc1ccncc1  -30.3%
47. CCc1ccc(OCC(=O)Nc2ccncc2)c(Br)c1  -31.2%
48. COc1ccc(C(=O)OCCN2CCN(C3=NS(=O)(=O)c4ccccc43)CC2)cc1OC  -32.9%
49. CN1CCN(CC#CCn2c3ccccc3c3ccccc32)CC1  -43.2%
50. CN(CCOCCOc1ccc(Cl)cc1Br)Cc1ccccc1  -46.1%
51. CC1CCN(c2ccc(C(=O)NCc3ccco3)cc2[N+](=O)[O-])CC1  -47.1%
52. CC(C)=CCCC(C)CN1CCC(n2nccc2NC(=O)c2cccnc2)CC1 (stereo not shown)  -52.1%
53. CCOC(=O)c1cc(-c2ccc(OC)cc2)n(CCC(=O)NC2CCN(Cc3ccccc3)CC2)c1C  -65.7%
54. O=[N+]([O-])c1ccc(-c2ccc(S(=O)(=O)NCCN3CCCC3)cc2)cc1  -77.7%
55. COCCNc1nc(SCC(=O)N2CCN(c3ccccc3OC)CC2)nc2ccccc12  -88.6%

— publication PMC4336329 (PLoS ONE, 2015)
